Experimental data reported in PMC4336329 (PLoS ONE, 2015).
Hit rate of the full screen: of about 310,000 compounds, about 14,000 (4.5%) showed an effect of 50% or more. The effect is printed as a negative number. This is one part of the list.

molecular target: human ether-à-go-go-related gene (hERG) potassium channel (human, UniProt Q12809); test: primary screen, population patch clamp on CHO cells stably expressing hERG
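Further: peak tail current of the secondary pulse compared with the same well before compound.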

Sequence of human ether-à-go-go-related gene (hERG) potassium channel (Q12809 whole entry, looked up): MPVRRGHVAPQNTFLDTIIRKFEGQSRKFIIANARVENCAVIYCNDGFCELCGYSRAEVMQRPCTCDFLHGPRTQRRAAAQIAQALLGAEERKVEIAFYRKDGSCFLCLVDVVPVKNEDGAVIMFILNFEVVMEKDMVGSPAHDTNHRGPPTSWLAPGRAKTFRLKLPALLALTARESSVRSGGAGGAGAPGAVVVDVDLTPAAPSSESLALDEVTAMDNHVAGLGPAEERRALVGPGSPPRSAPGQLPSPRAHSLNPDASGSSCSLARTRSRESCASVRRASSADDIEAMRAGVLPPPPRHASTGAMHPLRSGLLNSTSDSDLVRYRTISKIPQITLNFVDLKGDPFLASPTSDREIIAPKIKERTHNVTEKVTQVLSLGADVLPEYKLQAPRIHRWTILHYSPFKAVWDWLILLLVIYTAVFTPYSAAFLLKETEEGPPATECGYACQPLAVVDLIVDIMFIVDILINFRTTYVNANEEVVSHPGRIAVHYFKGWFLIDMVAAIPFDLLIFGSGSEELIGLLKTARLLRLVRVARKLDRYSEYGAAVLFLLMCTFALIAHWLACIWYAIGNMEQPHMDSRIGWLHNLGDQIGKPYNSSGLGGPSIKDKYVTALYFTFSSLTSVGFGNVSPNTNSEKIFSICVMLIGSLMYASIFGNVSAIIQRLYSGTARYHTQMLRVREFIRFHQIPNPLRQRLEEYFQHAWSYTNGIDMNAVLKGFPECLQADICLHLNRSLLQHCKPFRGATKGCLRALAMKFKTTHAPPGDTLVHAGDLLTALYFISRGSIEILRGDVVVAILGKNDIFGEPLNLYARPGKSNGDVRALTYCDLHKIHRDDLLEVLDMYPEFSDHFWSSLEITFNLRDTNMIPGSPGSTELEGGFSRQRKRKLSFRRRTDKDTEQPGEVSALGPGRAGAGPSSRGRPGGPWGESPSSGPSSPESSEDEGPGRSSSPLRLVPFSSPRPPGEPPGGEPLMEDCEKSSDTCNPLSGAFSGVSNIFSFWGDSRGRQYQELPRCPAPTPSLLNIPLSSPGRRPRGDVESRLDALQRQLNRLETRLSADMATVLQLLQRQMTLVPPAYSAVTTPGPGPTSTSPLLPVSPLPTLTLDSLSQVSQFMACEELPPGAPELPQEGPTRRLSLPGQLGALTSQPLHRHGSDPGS

Going from `COc1ccccc1/C=C1\SC(=S)N(CCC(=O)NC2=NCCS2)C1=O` to `COc1ccc(OC)c(/C=C2\N=C(c3ccccc3)OC2=O)c1`, the “hERG current change (%, negative = inhibition) at 10uM” value falls from 21.2% to 15.4%.

Compared with `Cl.N=c1sccn1CC(=O)N1N=C(c2ccc(Cl)cc2)CC1c1ccco1` (stereo not shown), `Cc1ccccc1NC(=S)NCCSc1ccc(Cl)cc1` is higher in “hERG current change (%, negative = inhibition) at 10uM” value: -79.5% for the first, 6.08% for the second.

Compared with `COc1ccc(Cl)cc1NC(=O)c1nc2nc(C)cc(C(F)F)n2n1`, `Cc1c(C(=O)/C=C/N(C)C)nnn1-c1ccc(Cl)cc1Cl` is higher in “hERG current change (%, negative = inhibition) at 10uM” value: 2.44% for the first, 14.2% for the second.

Compared with `Cn1cccc1/C=C1/C(=O)NC(=O)N(Cc2ccccc2)C1=O`, `O=C1S/C(=C\c2ccc(N3CCOCC3)o2)C(=O)N1Cc1ccc(F)cc1` is lower in “hERG current change (%, negative = inhibition) at 10uM” value: 8.75% for the first, 0.303% for the second.

Compared with `Cc1ccc(CS(=O)(=O)Cc2ccc(C(=O)NC3CCCC3)o2)cc1`, `COc1ccc(CCNC(=O)CN(C2CCCCC2)S(C)(=O)=O)cc1` is higher in “hERG current change (%, negative = inhibition) at 10uM” value: -6.12% for the first, 1.84% for the second.

First: COCC(=O)N1CCN(c2ccc([N+](=O)[O-])cc2)CC1
Second: O=C(OCC(=O)N1CCN(S(=O)(=O)c2ccc(Cl)cc2)CC1)c1cc(Br)ccc1O
The “hERG current change (%, negative = inhibition) at 10uM” value of the first is lower: -62.7% for the first, 6.4% for the second.

Compared with `Cc1c(C(=O)NC(=S)Nc2ccc(NC(=O)c3cccs3)cc2)oc2ccccc12`, `CCN1CCN(Cc2ccc(NC(=O)c3ccc(C)c(NC(=O)c4cc(-c5ccc(Br)cc5)n[nH]4)c3)cc2C(F)(F)F)CC1` is higher in “hERG current change (%, negative = inhibition) at 10uM” value: -3.23% for the first, 11.9% for the second.

First: Cc1ccccc1OC1C(=O)N(Cc2ccc3c(c2)OCO3)C1c1sccc1C (stereo not shown)
Second: O=C(Cc1cccs1)NCc1ccc2c(c1)OCO2
The “hERG current change (%, negative = inhibition) at 10uM” value of the first is higher: 4.77% for the first, 2.41% for the second.

First: C=CCNC(=O)CCCCCNS(=O)(=O)c1ccc(OC)cc1
Second: CCCCN(C)C(=O)CC(NS(=O)(=O)c1ccc(NC(C)=O)cc1)C(C)C (stereo not shown)
The “hERG current change (%, negative = inhibition) at 10uM” value of the first is lower: -1.2% for the first, 9.63% for the second.

First: O=C(NN1CCOCC1)c1ccccc1F
Second: Cc1cc(N2CCOCC2)n2nc(C)c(-c3ccccc3Cl)c2n1
The “hERG current change (%, negative = inhibition) at 10uM” value of the first is higher: 13.9% for the first, -32.7% for the second.

First: O=C(C1CCN(S(=O)(=O)Cc2ccccc2)CC1)N1CCCc2ccccc21
Second: CCCc1c(C(=O)NNc2cccc(Cl)c2)cnn1-c1ccccc1
The “hERG current change (%, negative = inhibition) at 10uM” value of the first is lower: -24.1% for the first, -5.55% for the second.

Going from `Cc1cccc(N2CCN(S(=O)(=O)c3ccc(-c4cc(C)no4)s3)CC2C)c1` (stereo not shown) to `Cc1ccc(-n2cc(C(=O)O)c(=O)cc2C)c(C)c1`, the “hERG current change (%, negative = inhibition) at 10uM” value falls from 20.7% to -35.1%.

First: C=CCN(CC=C)S(=O)(=O)c1ccc(C(=O)Nc2nnc(CSC)o2)cc1
Second: O=C(O)c1ccc(NS(=O)(=O)c2cc(Cl)ccc2Cl)cc1
The “hERG current change (%, negative = inhibition) at 10uM” value of the first is higher: 5.45% for the first, -1.95% for the second.

Going from `COc1ccc(CC(=O)N2CCc3cc(OC)c(OC)cc3C2O)cc1OC` (stereo not shown) to `COc1cc2nc(C3CCC3)n(NC(=O)C(OC(C)=O)c3ccccc3)c(=O)c2cc1OC` (stereo not shown), the “hERG current change (%, negative = inhibition) at 10uM” value rises from 8.05% to 9.45%.

Going from `N#CCCn1cc(/C=N/O)c(-c2ccc(Cl)cc2)n1` to `CCCCNC(=O)CNC(=O)c1nn(-c2ccc(OC)c(Cl)c2)c(=O)c2ccccc12`, the “hERG current change (%, negative = inhibition) at 10uM” value rises from -14.4% to 9.5%.

Going from `Cc1cc(=O)oc2c3c(cc(OCC(=O)N4CCC(C(=O)O)CC4)c12)OC(C)(C)CC3` to `CCC(=O)c1cc2c(C)cc(=O)oc2c(C)c1OC(=O)C(C)C`, the “hERG current change (%, negative = inhibition) at 10uM” value falls from 9.46% to -2.05%.

Going from `COc1ccc(CCNC(=O)C2CCCN(c3ncccn3)C2)cc1` (stereo not shown) to `CCCCC(=O)N1C/C=C\C(c2ccc(OC)cc2)N(Cc2ccc(F)cc2)C(=O)C1` (stereo not shown), the “hERG current change (%, negative = inhibition) at 10uM” value falls from -10.8% to -30.5%.

First: CCCC(c1nnnn1Cc1cccs1)N1CCN(C)CC1.Cl (stereo not shown)
Second: COc1cccc(-n2nnc3c(=O)n(Cc4ccc(F)cc4)cnc32)c1
The “hERG current change (%, negative = inhibition) at 10uM” value of the first is lower: -29.4% for the first, -3.68% for the second.

First: COC(=O)C1=C(c2ccc(Cl)c(C(F)(F)F)c2)C[C@@H]2CC[C@H]1N2C(=O)NCCOc1ccccc1
Second: O=C(NCCCn1ncc2ccccc21)c1cc(COc2c(F)cccc2F)on1
The “hERG current change (%, negative = inhibition) at 10uM” value of the first is higher: 11.2% for the first, 6.73% for the second.

Compared with `O=C(N/N=C/c1ccc2c(c1)OCO2)C(=O)Nc1ccccc1Cl`, `NC1=C([N+](=O)[O-])C(c2ccc3c(c2)OCO3)c2c(c3ccccc3oc2=O)O1` (stereo not shown) is lower in “hERG current change (%, negative = inhibition) at 10uM” value: 7.26% for the first, -21.3% for the second.

First: Cc1coc2c(C)c3oc(=O)c(CCC(=O)N4C[C@H]5C[C@@H](C4)c4cccc(=O)n4C5)c(C)c3cc12
Second: O=C(/C=C/c1ccccc1[N+](=O)[O-])Nc1cccnc1
The “hERG current change (%, negative = inhibition) at 10uM” value of the first is lower: -50.6% for the first, -6.87% for the second.

With `OCCSc1c(F)c(SCCO)c(SCCO)c(F)c1SCCO` the “hERG current change (%, negative = inhibition) at 10uM” value was 1.25%.
